In the antibiotic and cytotoxicity screens of Wong et al. (2023):
Some of the results follow.

The compounds below were run on HSkMC (human skeletal muscle cells) (assay: cytotoxicity call (relative viability < 0.9)). Settings: 10 µM.

Row | Structure (SMILES) | cytotoxicity call
1 | C[C@H](CO)N1C[C@H](C)[C@@H](CN(C)S(C)(=O)=O)Oc2ccc(NS(C)(=O)=O)cc2CC1=O | inactive
2 | O=C(C[C@@H]1C=C[C@@H](NC(=O)C2CCC2)[C@@H](CO)O1)NCCCN1CCOCC1 | inactive
3 | COc1cc2c(cc1OC)C(=O)OC2 | inactive
4 | Cc1noc(C)c1NC(=O)N(C)C[C@H]1Oc2ccc(NS(=O)(=O)c3ccccc3)cc2C(=O)N([C@H](C)CO)C[C@H]1C | inactive
5 | C[C@@H]1CN([C@H](C)CO)C(=O)Cc2cc(NC(=O)CCCCCC(=O)Nc3ccccc3N)ccc2O[C@H]1CN(C)Cc1ccc(Cl)c(Cl)c1 | inactive
6 | CC(=O)Nc1c(I)cc(I)c(C(=O)O)c1I | inactive
7 | Cn1c(S(=O)(=O)CC(N)=O)nc2ccccc21 | inactive
8 | COc1ccc(COCC23Oc4ccccc4[C@H]([C@H]2COC(=O)NCCCCCC(=O)NO)n2c(c4c(c(C(C)=O)c2=O)C(=O)N(C)C4=O)N3C)cc1 | inactive
9 | C[C@H](CO)N1C[C@H](C)[C@H](CN(C)C(=O)Nc2ccc(N3CCCCC3)cc2)OCc2cn(nn2)CCCC1=O | inactive
10 | COCCOC(=O)N1C(=O)[C@@]2(c3cc(C#CC4(O)CCCCCC4)ccc31)[C@H](c1ccc(OCCO)cc1)N1[C@H](c3ccccc3)[C@H](c3ccccc3)OC(=O)[C@H]1[C@@H]2C(=O)N1CCCCCCC1 | inactive
11 | C[C@H]1CN([C@@H](C)CO)C(=O)c2cc(NC(=O)Cn3cnnn3)ccc2O[C@H]1CN(C)S(=O)(=O)c1ccccc1 | inactive
12 | C[C@@H]1CCCCO[C@H](CN(C)Cc2ccc(C(=O)O)cc2)[C@@H](C)CN([C@@H](C)CO)C(=O)c2cc(NC(=O)Nc3ccccc3)ccc2O1 | inactive
